# According to the supplement of paper PMC8728848:
# The other results are listed elsewhere or left out.
# B1: Gal 9 (Homo sapiens), O00182 (protein)
# chain: MAFSGSQAPYLSPAVPFSGTIQGGLQDGLQITVNGTVLSSSGTRFAVNFQTGFSGNDIAFHFNPRFEDGGYVVCNTRQNGSWGPEERKTHMPFQKGMPFDLCFLVQSSDFKVMVNGILFVQYFHRVPFHRVDTISVNGSVQLSYISFQNPRTVPVQPAFSTVPFSQPVCFPPRPRGRRQKPPGVWPANPAPITQTVIHTVQSAPGQMFSTPAIPPMMYPHPAYPMPFITTILGGLYPSKSILLSGTVLPSAQRFHINLCSGNHIAFHLNPRFDENAVVRNTQIDNSWGSEERSLPRKMPFVRGQSFSVWILCEAHCLKVAVDGQHLFEYYHRLRNLPTINRLEVGGDIQLTHVQT
# Assays:
# Assay in all cases: glycan array binding signal (z-score within array); higher = stronger binding
# Details in all cases: glycan notation: IUPAC condensed, linker removed
# [1] = target: Neu5Ac(a2-3)Gal(b1-3)GalNAc(b1-3)Gal(a1-4)Gal(b1-4)Glc
# Procedure, shortened: (§1)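 Negative Z-scores can be read as non-binding. The Z-score is calculated within each array and then averaged across arrays of one protein sequence at different concentrations or buffers and across linkers. Arrays, 3228 in all, were curated from the Consortium for Functional Glycomics database and kept only where the protein sequence was available.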
# [2] = target: Neu5Ac(a2-3)Gal(b1-3)GalNAc(b1-4)[Neu5Ac(a2-3)]Gal(b1-4)Glc
# Procedure, shortened: as §1
# [3] = target: Neu5Ac(a2-3)Gal(b1-3)GalNAc(b1-4)[Neu5Ac(a2-8)Neu5Ac(a2-3)]Gal(b1-4)Glc
# Procedure, shortened: as §1
# [4] = target: Neu5Ac(a2-3)Gal(b1-3)GalNAc6S
# Procedure, shortened: as §1
# [5] = target: Neu5Ac(a2-3)Gal(b1-3)GlcNAc
# Procedure, shortened: as §1
# [6] = target: Neu5Ac(a2-3)Gal(b1-3)GlcNAc(b1-2)Man
# Procedure, shortened: as §1
# [7] = target: Neu5Ac(a2-3)Gal(b1-3)GlcNAc(b1-2)Man(a1-3)[GlcNAc(b1-4)][Neu5Ac(a2-3)Gal(b1-3)GlcNAc(b1-2)Man(a1-6)]Man(b1-4)GlcNAc(b1-4)GlcNAc
# Procedure, shortened: as §1
# [8] = target: Neu5Ac(a2-3)Gal(b1-3)GlcNAc(b1-2)Man(a1-3)[Neu5Ac(a2-3)Gal(b1-3)GlcNAc(b1-2)Man(a1-6)]Man(b1-4)GlcNAc(b1-4)GlcNAc
# Procedure, shortened: as §1
# [9] = target: Neu5Ac(a2-3)Gal(b1-3)GlcNAc(b1-3)Gal(b1-3)GlcNAc
# Procedure, shortened: as §1
# [10] = target: Neu5Ac(a2-3)Gal(b1-3)GlcNAc(b1-3)Gal(b1-4)GlcNAc
# Procedure, shortened: as §1
# [11] = target: Neu5Ac(a2-3)Gal(b1-3)GlcNAc(b1-3)GalNAc
# Procedure, shortened: as §1
# [12] = target: Neu5Ac(a2-3)Gal(b1-3)GlcNAc(b1-4)Gal(b1-4)Glc
# Procedure, shortened: as §1
# [13] = target: Neu5Ac(a2-3)Gal(b1-3)GlcNAc(b1-6)GalNAc
# Procedure, shortened: as §1
# [14] = target: Neu5Ac(a2-3)Gal(b1-3)GlcNAc6S
# Procedure, shortened: as §1
# [15] = target: Neu5Ac(a2-3)Gal(b1-3)[Fuc(a1-4)]GlcNAc
# Procedure, shortened: as §1
# [16] = target: Neu5Ac(a2-3)Gal(b1-3)[Fuc(a1-4)]GlcNAc(b1-3)Gal(b1-3)[Fuc(a1-4)]GlcNAc
# Procedure, shortened: as §1
# [17] = target: Neu5Ac(a2-3)Gal(b1-3)[Fuc(a1-4)]GlcNAc(b1-3)Gal(b1-4)[Fuc(a1-3)]GlcNAc
# Procedure, shortened: as §1
# [18] = target: Neu5Ac(a2-3)Gal(b1-3)[GlcNAc(b1-6)]GalNAc
# Procedure, shortened: as §1
# [19] = target: Neu5Ac(a2-3)Gal(b1-3)[Neu5Ac(a2-3)Gal(b1-4)]GlcNAc
# Procedure, shortened: as §1
# [20] = target: Neu5Ac(a2-3)Gal(b1-3)[Neu5Ac(a2-6)]GalNAc
# Procedure, shortened: as §1
# [21] = target: Neu5Ac(a2-3)Gal(b1-3)[Neu5Ac(a2-6)]GlcNAc(b1-3)[Fuc(a1-3)[Gal(b1-4)]GlcNAc(b1-6)]Gal(b1-4)Glc
# Procedure, shortened: as §1
# [22] = target: Neu5Ac(a2-3)Gal(b1-3)]Neu5Ac(a2-3)Gal(b1-4)]GlcNAc
# Procedure, shortened: as §1
# Neu5Ac(a2-3)Gal(b1-4)Glc = target: Neu5Ac(a2-3)Gal(b1-4)Glc
# Procedure, shortened: as §1
# [23] = target: Neu5Ac(a2-3)Gal(b1-4)GlcNAc
# Procedure, shortened: as §1
# [24] = target: Neu5Ac(a2-3)Gal(b1-4)GlcNAc(b1-2)Man
# Procedure, shortened: as §1
# [25] = target: Neu5Ac(a2-3)Gal(b1-4)GlcNAc(b1-2)Man(a1-3)[GlcNAc(b1-2)Man(b1-4)GlcNAc(b1-2)Man(a1-6)]Man(b1-4)GlcNAc(b1-4)GlcNAc
# Procedure, shortened: as §1
# [26] = target: Neu5Ac(a2-3)Gal(b1-4)GlcNAc(b1-2)Man(a1-3)[GlcNAc(b1-4)][Neu5Ac(a2-3)Gal(b1-4)GlcNAc(b1-2)Man(a1-6)]Man(b1-4)GlcNAc(b1-4)GlcNAc
# Procedure, shortened: as §1
# [27] = target: Neu5Ac(a2-3)Gal(b1-4)GlcNAc(b1-2)Man(a1-3)[Neu5Ac(a2-3)Gal(b1-4)GlcNAc(b1-2)Man(a1-6)]Man(b1-4)GlcNAc(b1-4)GlcNAc
# Procedure, shortened: as §1
# [28] = target: Neu5Ac(a2-3)Gal(b1-4)GlcNAc(b1-2)Man(a1-3)[Neu5Ac(a2-3)Gal(b1-4)GlcNAc(b1-2)Man(a1-6)]Man(b1-4)GlcNAc(b1-4)[Fuc(a1-6)]GlcNAc
# Procedure, shortened: as §1
# [29] = target: Neu5Ac(a2-3)Gal(b1-4)GlcNAc(b1-2)Man(a1-3)[Neu5Ac(a2-6)Gal(b1-4)GlcNAc(b1-2)Man(a1-6)]Man(b1-4)GlcNAc(b1-4)GlcNAc
# Procedure, shortened: as §1
# [30] = target: Neu5Ac(a2-3)Gal(b1-4)GlcNAc(b1-2)[Neu5Ac(a2-3)Gal(b1-4)GlcNAc(b1-4)]Man(a1-3)[GlcNAc(b1-4)][Neu5Ac(a2-3)Gal(b1-4)GlcNAc(b1-2)[Neu5Ac(a2-3)Gal(b1-4)GlcNAc(b1-6)]Man(a1-6)]Man(b1-4)GlcNAc(b1-4)GlcNAc
# Procedure, shortened: as §1
# [31] = target: Neu5Ac(a2-3)Gal(b1-4)GlcNAc(b1-2)[Neu5Ac(a2-3)Gal(b1-4)GlcNAc(b1-4)]Man(a1-3)[GlcNAc(b1-4)][Neu5Ac(a2-3)Gal(b1-4)GlcNAc(b1-4)Man(a1-6)]Man(b1-4)GlcNAc(b1-4)GlcNAc
# Procedure, shortened: as §1
# [32] = target: Neu5Ac(a2-3)Gal(b1-4)GlcNAc(b1-2)[Neu5Ac(a2-3)Gal(b1-4)GlcNAc(b1-6)]Man(a1-6)[Neu5Ac(a2-3)Gal(b1-4)GlcNAc(b1-2)Man(a1-3)]Man(b1-4)GlcNAc(b1-4)GlcNAc
# Procedure, shortened: as §1
# [33] = target: Neu5Ac(a2-3)Gal(b1-4)GlcNAc(b1-2)[Neu5Ac(a2-3)Gal(b1-4)GlcNAc(b1-6)]Man(a1-6)[Neu5Ac(a2-3)Gal(b1-4)GlcNAc(b1-2)Man(a1-3)][GlcNAc(b1-4)]Man(b1-4)GlcNAc(b1-4)GlcNAc
# Procedure, shortened: as §1
binder,measurement,setting,value
B1,glycan array binding signal (z-score),[1],-0.153
same,glycan array binding signal (z-score),[2],-0.315
same,glycan array binding signal (z-score),[3],-0.323
same,glycan array binding signal (z-score),[4],-0.34
same,glycan array binding signal (z-score),[5],-0.251
same,glycan array binding signal (z-score),[6],-0.253
same,glycan array binding signal (z-score),[7],-0.281
same,glycan array binding signal (z-score),[8],-0.338
same,glycan array binding signal (z-score),[9],0.968
same,glycan array binding signal (z-score),[10],0.431
same,glycan array binding signal (z-score),[11],-0.316
same,glycan array binding signal (z-score),[12],-0.285
same,glycan array binding signal (z-score),[13],-0.246
same,glycan array binding signal (z-score),[14],-0.314
same,glycan array binding signal (z-score),[15],-0.313
same,glycan array binding signal (z-score),[16],-0.311
same,glycan array binding signal (z-score),[17],-0.326
same,glycan array binding signal (z-score),[18],-0.308
same,glycan array binding signal (z-score),[19],-0.332
same,glycan array binding signal (z-score),[20],-0.31
same,glycan array binding signal (z-score),[21],-0.298
same,glycan array binding signal (z-score),[22],-0.318
same,glycan array binding signal (z-score),Neu5Ac(a2-3)Gal(b1-4)Glc,-0.311
same,glycan array binding signal (z-score),[23],-0.28
same,glycan array binding signal (z-score),[24],-0.251
same,glycan array binding signal (z-score),[25],1.19
same,glycan array binding signal (z-score),[26],-0.309
same,glycan array binding signal (z-score),[27],-0.305
same,glycan array binding signal (z-score),[28],-0.256
same,glycan array binding signal (z-score),[29],-0.071
same,glycan array binding signal (z-score),[30],-0.294
same,glycan array binding signal (z-score),[31],-0.282
same,glycan array binding signal (z-score),[32],-0.246
same,glycan array binding signal (z-score),[33],-0.288
